In the supplement of paper PMC10126150:
Values marked as one replicate rest on one cluster of the flow cell; about a third of the high ones do not repeat.

These sequences were tested on ATP (assay: switch fluorescence ratio, 500 uM ATP over buffer (Cy3 cluster intensity, sum of 5 cycles each) (fold (ratio)); higher = stronger signal-on switching upon ATP binding; sequences stand for … in TCGTCGGCAGCGTCAGATGTGTATAAGAGACAGTTTTTTTTTTTTTTTTTTTTTTTTT…TC). Details: aptamer strand: ATP DNA aptamer (quencher-CACCTGGGGGAGTATTGCGGAGGAAGG + anchor), 100 nM annealed; ATP concentration: 500 uM; one replicate.
In short: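 Clusters with intensities outside 100-1000 RFU were excluded. The remaining Cy3-labelled switching-strand clusters on a modified Illumina MiSeq flow-cell had been annealed to 100 nM quencher-labelled ATP aptamer and imaged in selection buffer, then after 15 min with 500 uM ATP at 22 °C, for five cycles separated by NaOH stripping and re-annealing. The fluorescence ratio, averaged per switch-domain sequence, is each cluster's summed target-cycle Cy3 intensity over its summed buffer-cycle Cy3 intensity.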
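Also: ATP exposure 15 min at 22 °C before imaging.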

Row | Sequence | switch fluorescence ratio
1 | CTTGAGTTGC | 0.987
2 | CTAATAAGAA | 1.01
3 | AGGGAAACTT | 1.02
4 | CCACGAGGGG | 0.999
5 | TCGTTCCCAG | 1.04
6 | CACATAAG | 1.03
7 | AAGTACATTT | 1.22
8 | TACACGAATT | 0.962
9 | TCCACGGA | 1.06
10 | GATCGGAATC | 2.47
11 | TGAGAGGCCT | 1.02
12 | GATGCTATAG | 1.38
13 | ATATCAGGCA | 1.02
14 | AGGACGAAGG | 0.974
15 | CTTGGCAGCG | 0.992
16 | CATCTGCGAG | 2.15
17 | CGTAGCGCCT | 1.03
18 | TGGCCAATAT | 1.03
19 | GCGGTAAGTT | 1
20 | ATCACATATT | 1.04
21 | TATGTGACAC | 0.981
22 | AGGGGACTGG | 0.996
23 | GTAGTACTGT | 1.04

Row | Sequence | switch fluorescence ratio
24 | GGACATGTAA | 0.954
25 | ACGTGTAAAC | 1.03
26 | ATCCTGCCAC | 1.28
27 | GCATTACCAG | 1.09
28 | CTTAGAGCAA | 1.92
29 | GTCGGGTTTT | 0.996
30 | AAGACATCTA | 1
31 | TAACCCAGCT | 1.05
32 | CTACGCCAGC | 2.9
33 | CTAATGTCGG | 1.02
34 | TGAGGGTGG | 1
35 | TTCCCGCGCG | 1.01
36 | TTATTTGGTT | 0.997
37 | CAATCGGGCA | 1.03
38 | CTTTGGCGAG | 0.986
39 | TGGAATACTT | 1.15
40 | CGCATTGTAG | 1.04
41 | TTTCACGGGC | 1.04
42 | ATCTAAGTAC | 1.32
43 | CGCAGCTTCG | 1.16
44 | ATTGCCTGGT | 0.975
45 | TTCTTACGGT | 1.03
46 | GGTTCGGCTC | 1.04

Row | Sequence | switch fluorescence ratio
47 | TCACCCAGAC | 1.43
48 | GGGAAATACG | 1.17
49 | TGCAGCTCCC | 2.76
50 | ATCCGGGGCC | 1
51 | CCCTCTTCCT | 1.37
52 | GATATTTATC | 1.03
53 | CTCGCTTAGT | 1.12
54 | GGAAGAAAGA | 0.995
55 | TAAAAAATGA | 1.03
56 | CGTTGGTTCT | 0.987
57 | CATCGAGGGA | 0.978
58 | TAAAATTTGG | 0.965
59 | ACTTGTCGCT | 1.03
60 | GCCAGAAATA | 1.05
61 | CCACGCAGGT | 1.76
62 | ATCCTTGTA | 1.01
63 | GGTGTACGCA | 1.05
64 | TCCGCGCCTT | 1.53
65 | ATTGACCATG | 1.05
66 | AGATGTGCGC | 1.01
67 | TCTGATGCTG | 1.01
68 | TCGAGGCGGT | 1.12
69 | GGGGATTGGT | 0.981

Row | Sequence | switch fluorescence ratio
70 | GGAGGCTTTT | 0.984
71 | CTTAGTCGCC | 0.979
72 | AATTTGTAA | 0.969
73 | CCTAAGGGAA | 1.08
74 | AGTCAAGTAC | 1.88
75 | ATTGATTACA | 1.04
76 | GTCGGGCTTA | 0.967
77 | CTTGGATCCT | 1.01
78 | CGGACTAAGG | 0.95
79 | GGAGTCCTTC | 0.985
80 | GGAATTAATT | 0.852
81 | ATTTACATAG | 1
82 | CTGAGAGATT | 0.991
83 | GGTGTAAAGG | 1
84 | CTCCTCGGTC | 1.6
85 | AAACCCAATG | 1.08
86 | CTTTTCAGTC | 1.04
87 | ACTGAAGTCA | 1
88 | ATAATGAGTG | 1.03
89 | TAATGTGAGT | 0.993
90 | GCGCCGGGGT | 0.988
91 | AGCAGGTCAT | 0.987
92 | TGCTATGTC | 0.79

Row | Sequence | switch fluorescence ratio
93 | GGAATTTTTA | 0.975
94 | ATTGTCTCAA | 1.01
95 | GATCATGGAG | 1.01
96 | ATACGCGGCG | 1.01
97 | CGGTAGTATA | 0.99
98 | GGGGGTCGTA | 1.02
99 | TCGGGTCAAA | 1.03
100 | TTAAGAGCAA | 1.43
101 | TTTCTGGATC | 1.01
102 | AGCCATCACG | 0.996
103 | TTGAAGTTT | 0.993
104 | AGGCAACCTA | 1
105 | GTGTGCGGTT | 0.995
106 | GGATGATGTA | 0.944
107 | GTGGCCTTGT | 0.98
108 | AACGGGTCCG | 1.07
109 | TTGGAATACA | 0.969
110 | GCATGAGAG | 0.957
111 | TCTGGTATAT | 1.12
112 | TCGCGGTTGA | 1.02
113 | GTAGAAAGA | 0.985
114 | TGGATCCATA | 0.967
115 | AGTAGAGGTA | 1.01

Row | Sequence | switch fluorescence ratio
116 | CGGGCAGAAG | 0.975
117 | GCATCGTTAT | 0.963
118 | TTACTACAAA | 1.04
119 | TGGTCGCCCC | 1.01
120 | TGGGGCGTAA | 1.03
121 | AACTGAGGAG | 0.935
122 | AGCATTCGGC | 1.01
123 | TTCGTCTTTA | 0.956
124 | GATGGACGGT | 1.03
125 | AAGAACTCGG | 1.05
126 | CGTTTGGCTG | 1
127 | TTACATTATC | 1.04
128 | GGGCTTTAAC | 0.975
129 | CTAGCATCGG | 1.05
130 | CTTTTGGTCC | 1.02
131 | TTTCATAGAG | 0.971
132 | GGCCTCACGG | 0.94
133 | TCGGTACCAT | 1
134 | GGATATTAAG | 0.985
135 | GAGAGAGTGT | 0.961
136 | AGTTAGGCGT | 1.01
137 | CCTATCAAAT | 1.01
138 | CGGATAATGG | 0.963

Row | Sequence | switch fluorescence ratio
139 | GTGTCGGTTA | 0.978
140 | AGCAGGGTCA | 0.979
141 | TTTTACAGAG | 0.984
142 | ATTTGAACTG | 1.26
143 | TAGTCTTAT | 0.995
144 | TGTCAGCGAA | 1.03
145 | ATTGATAGTT | 0.936
146 | ATACCTGATA | 1.07
147 | ACAACGAAAT | 1.17
148 | ATTTTAGTGA | 1.04
149 | CTTTACGTAA | 1.25
150 | CGTGTTCCCG | 0.944
151 | GGCCTAAGGT | 0.989
152 | AGTTTCAATA | 1.02
153 | CGACGATGCG | 1.02
154 | GCAAGTATAA | 1.03
155 | GCCCTCGCTA | 1.33
156 | CGAAAAATGT | 1.03
157 | GGTAAACACT | 1.04
